The source of these data is ChEMBL document CHEMBL4888484, “Replenishing the malaria drug discovery pipeline: Screening and hit evaluation of the MMV Hit Generation Library 1 (HGL1) against asexual blood stage Plasmodium falciparum ,using a nano luciferase reporter read-out” (2022).

Among all 150,000 compounds or so, about 540 (0.36%) showed an effect of 50% or more. The list shows a part of the results.

Broadly, the % Inhibition is the drop in the measured response relative to a control, in per cent.

This assay concerns Plasmodium falciparum. Nature of the assay: Primary screen in NF54 nanoGlo assay, in single point, at 2uM, 72h; a lower Z score goes with more inhibition. Format: functional, Erythrocyte. The conditions noted are these: timepoint 72 hour.
For the compound `O=C(c1scnc1C1CC1)N1CCCCC2CCCCC21` (stereo not given), the “% Inhibition” value was -7% and the Z score is recorded as 0.95.
In the case of `CCCCOC1CC(N(C)C(=O)Cc2csc(CC)n2)C1(C)C` (stereo not given), the “% Inhibition” value is -1% and the Z score is on record as 0.09.
The like results for `O=C(NCCn1nc(-n2cccn2)ccc1=O)C1CCC1` were, in that order, -5% and 0.95.
Regarding `CS(=O)(=O)N1CCOc2ccc(F)cc2C1`, the “% Inhibition” value is -12% and the Z score is listed as 1.59.
For `Cc1cccc(C(=O)N2CCCCCNC(=O)[C@@H]3CCC[C@@H]32)c1`, in that order: -7% and 0.94.
Consider `COCc1cn(C[C@H]2C[C@@H](NC(=O)C3CCCC3)[C@H](O)[C@@H]2O)nn1`, for which the “% Inhibition” value was 31% and the Z score was -3.47.
On to `O=C1Nc2ncccc2O[C@H]1CCN1CCN(Cc2ccccc2)CC1`, for which the “% Inhibition” value is on record as -2% and the Z score is 0.27.
For `CCC(=O)N1CCCC[C@@]1(C)c1noc(-c2ccc(F)cc2)n1`, the “% Inhibition” value is listed as -6% and the Z score was 0.92.
The like results for `Cc1cc(C(=O)N2C[C@H](C)Oc3ccccc32)on1` were, in that order, -17% and 2.19.
For `CC1(C)C[C@@H](NC(=O)c2nccc3occc23)CCS1(=O)=O`, in that order: 3% and -0.55.
Consider `CN1CCCC[C@@H]1CN1CCN(C(=O)c2cc(F)cc(F)c2)CC1`, for which the “% Inhibition” value is 1% and the Z score is reported as -0.1.
For `C[C@H](OC(=O)c1ccc(N2C(=O)c3ccccc3C2=O)cc1)C(=O)Nc1ccc2c(c1)OCCO2`, in that order: 10% and -1.53.
Take `COC(=O)c1cnc2c(c1)n(Cc1coc(C)n1)c(=O)n2CC(C)C`: the “% Inhibition” value is on record as -13% and the Z score is listed as 2.43.
Regarding `COc1ccc(CC[C@H](C)NC2CCCC2)cc1`, the “% Inhibition” value is recorded as -7% and the Z score is recorded as 1.3.
The like results for `CCN(CC)CCNC(=O)c1ccc(-c2nc(CCN(C)C(=O)c3ccc(C)cc3)no2)cc1` were, in that order, -10% and 0.94.
For `O=C(Cn1cnc2nc(N3CCOCC3)ncc2c1=O)NCc1ccc(F)c(Cl)c1`, in that order: 1% and -0.16.
The like results for `Cc1cc(COc2ccccc2)oc1C(=O)N[C@@H](C)Cc1cnccn1` were, in that order, -9% and 0.87.
Regarding `CC(=O)c1ccc(-c2nc(C)nc(N3CCCC3)c2N)cc1`, the “% Inhibition” value was -11% and the Z score was 1.62.
For `CC(C)OCC[C@H]1CCCCN1CCN1C(=O)CCC1=O`, in that order: 6% and -0.78.
For `CCc1ccc(CCNC(=O)N2CCC3(CCO3)CC2)cc1`, in that order: -3% and 0.57.
The like results for `Cc1cc(C(=O)Nc2cnccc2NC2CC2)n(C)n1` were, in that order, 9% and -1.
For `COC1CC(N(C)c2ncnc3c2nnn3C(C)C)C12CCC2` (stereo not given), the “% Inhibition” value is listed as -4% and the Z score is listed as 0.82.
For `O=C(NCC[C@@H](CCO)c1cccs1)c1ccccc1`, in that order: 3% and -0.38.
As for `CC(=O)OCC(OC(C)=O)C(OC(C)=O)C(OC(C)=O)C(=O)Nc1ccc(C)cc1C` (stereo not given), the “% Inhibition” value is recorded as -19% and the Z score worked out at 2.09.
With `Cc1ccsc1-c1cn(Cc2c(CO)cnc(C)c2O)nn1`, the “% Inhibition” value was -3% and the Z score was found to be 0.5.
On to `CC(C)c1nn(C)cc1-c1noc(C(F)=C2CCCC2)n1`, for which the “% Inhibition” value stood at 4% and the Z score is -0.58.
Regarding `Clc1ccc(-c2noc(CN3CCc4ccccc43)n2)cc1`, the “% Inhibition” value is -5% and the Z score is 0.52.
The like results for `O=C(CCc1cc2n(n1)CCN(C1Cc3ccccc3C1)C2)N1CCCC1` were, in that order, -7% and 1.28.
For `c1ccc(-c2nc(Cc3nc4ccccc4[nH]3)no2)cc1`, in that order: -27% and 2.42.
For `COCCC(=O)NCC1CC12CCc1ccccc12` (stereo not given), in that order: -13% and 2.45.
`O=C(CCc1ccc(Cl)c(C(F)(F)F)c1)N1CC[C@H](N2CCc3ccccc3C2)C1`: the “% Inhibition” value stood at 50% and the Z score is -7.74.
For `CO[C@@H](C)CS(=O)(=O)Nc1cc(Cl)ccc1Br`, in that order: 4% and -0.4.
For `Cc1nn(C)c(C)c1C1OCCC1CNCc1csc(C2CC2)n1` (stereo not given), in that order: -8% and 0.75.
For `Cc1ccc(N(CC(=O)N2CCN(Cc3ccc4c(c3)OCO4)CC2)S(=O)(=O)N(C)C)cc1`, in that order: 8% and -0.76.
On to `CC1=NN(c2ccccc2)C(=O)C12Cc1cc(C(F)(F)F)ccc1N1CCN(Cc3ccccc3)CC12` (stereo not given), for which the “% Inhibition” value stood at 6% and the Z score is recorded as -0.77.
For `O=C(CN1CCN(c2ccccc2F)C1=O)N1CCC(Oc2ccncc2Cl)CC1`, in that order: -2% and 0.31.
The like results for `Cc1nc(N2CCC(C(=O)NC[C@H]3CCS(=O)(=O)C3)CC2)nc2ccc(C(C)C)cc12` were, in that order, -3% and 0.33.
For `CC(NCC(C)N1CCOCC1C)c1cnn(C(C)C)c1` (stereo not given), the “% Inhibition” value is recorded as 1% and the Z score was -0.14.
The like results for `CCn1c(=O)c2cc(C(=O)Nc3ccc(OC)c(C(F)(F)F)c3)nn2c2ccccc21` were, in that order, -11% and 1.12.
Consider `CC(=O)Nc1ccc(S(=O)(=O)NCCc2csc(C)n2)cc1`, for which the “% Inhibition” value is reported as 3% and the Z score was -0.5.
For the compound `COC(C)C(=O)NC1CC(O)C1(C)C` (stereo not given), the “% Inhibition” value is -4% and the Z score is on record as 0.63.
For `Cn1ncnc1NC(=O)CCCNC(=O)OC(C)(C)C`, in that order: -5% and 0.74.
For `Cc1ccc(-n2nc(C(=O)NCCN3CCOCC3)c(=O)n(Cc3ccccc3)c2=O)cc1`, in that order: -8% and 1.32.
`CCOc1cccc(CNCCCOC)c1`: the “% Inhibition” value was -3% and the Z score is listed as 0.39.
For `O=C(c1cccs1)N1CCC(C(=O)N2CCCc3cc(S(=O)(=O)N4CCCC4)ccc32)CC1`, in that order: -11% and 2.05.
For `CC(C)(NCc1nccc(N)n1)c1ccccc1Br`, in that order: 3% and -0.67.
For `CCN(CCNC(=O)Cc1ccc(OC)cc1)C1CC1`, in that order: -6% and 0.8.
With `COc1ccc2c(c1NC(=O)c1ccon1)CCC2`, the “% Inhibition” value was -13% and the Z score is listed as 1.29.
For the compound `O=C(NC1CC2CC2C1)C1CCCCS1(=O)=O` (stereo not given), the “% Inhibition” value is reported as -4% and the Z score is reported as 0.46.
The like results for `COc1c[nH]c(C(=O)Nc2ccn3nnnc3c2)cc1=O` were, in that order, 3% and -0.37.
For `Cc1ncc2ccc(C(=O)N3CCc4c(cccc4NS(C)(=O)=O)C3)cn12`, the “% Inhibition” value was -10% and the Z score came to 1.32.
As for `Cc1nn(C)cc1C(C)NC(=O)N1CC(O)CC1c1cccc(F)c1` (stereo not given), the “% Inhibition” value came out at 3% and the Z score was -0.4.
`C[C@@H](CCc1ccccc1)NC(=O)NCCCN1CCCC1=O`: the “% Inhibition” value is listed as -8% and the Z score turned out to be 1.03.
The like results for `Cc1ccc(C)c(NC(=O)[C@H]2CCCN(S(=O)(=O)c3c[nH]c(C(=O)N4CCCCCC4)c3)C2)c1` were, in that order, -4% and 0.45.
On to `Cc1ccc(CN2CCN(C(=O)Nc3ccc(Cl)cc3)c3cccnc32)cc1`, for which the “% Inhibition” value is listed as -15% and the Z score is recorded as 1.77.
